# The list shows a part of the results.
# B1: chr8:95500983:95500984:-_ENSG00000164944_ENST00000437199|hu_hu|hu_hu_hu_mus_True|18_98 (ssRNA)
# RNA: GGGAGUUCUACAGUCCGACGAUCAGAACACAUCUAUUCGUGUAAAGACCGUACAUGACGGCCUCUACCACUGCCUCCACUAACAAACUUUCCUCUCGAGCCUCCACUGCCGCUAUUUUGCACUAGCCAGGACGGUCCCAGGCCCAACAGAGGAUUGAGCAUCA
# B2: chrX:131339380:131339381:-_ENSMUSG00000033436_ENSMUST00000035559|mus_mus|FALSE|FALSE (ssRNA)
# RNA: GGGAGUUCUACAGUCCGACGAUCACCGAGAAGUUUCUUUAGCAUGUCCGGAUUUUCAGCAAAGUUUGAAAGUAUUUUCAGAAUCUCAACCUUGAUUUUUCCACCCCCCUGAGAUAACAAGCGGAAAAAGUUGGCAAUGGAAUUCAACAGAGGAUUGAGCAUCA
# B3: chr17:21098601:21098602:+_ENSMUSG00000007564_ENSMUST00000007708|mus_hu|motif|central (ssRNA)
# RNA: GGGAGUUCUACAGUCCGACGAUCGGCCAAGACCUUGGGGAUGAUUGUGGCAUGGGCCCACUCCUUCCCAAACUUUUCCACGGGCUUCUUCAGGUUGCUGGUGGCUGCCUCGCGGAUGGCAUAUACAUGAUCCACAAGCCAGGCCAACAGAGGAUUGAGCAUCA
# B4: chr15:98684510:98684511:-_ENSMUSG00000048154_ENSMUST00000023741|mus_mus|FALSE|FALSE (ssRNA)
# RNA: GGGAGUUCUACAGUCCGACGAUCGGCCUUUUGCAGGUAGGGGGCUUUGUCAGCGGCUGGAACCUUUCUCCAGAGCUUCAUGAUUUGUUUACAUCGGCUAGACCAGUCUGGGUAAUCUUGCUUGAGAUUAGGAAAGUUAAUGUUCAACAGAGGAUUGAGCAUCA
# B5: 100424326_100425255_1919_3pUTR_ENSG00000136937_ENST00000375147|human|control|control (ssRNA)
# RNA: GGGAGUUCUACAGUCCGACGAUCUUUUGAAGACUUCAUGAAACUUUGCAAGAGCACUGAAGGAGUGGCUGAAUGAUUUGGCUGCCAAGUGUAGCAGAGUCUGUACAAAGACUUCUAUUUUCAAUGGGUUAAAACUGAAUCCUUCAACAGAGGAUUGAGCAUCA
# B6: chr4:107938938:107938939:-_ENSMUSG00000034636_ENSMUST00000043616|mus_mus|motif|central (ssRNA)
# RNA: GGGAGUUCUACAGUCCGACGAUCCCGGCUGAAGCACCGCUCAUAUGGAUCCUCGAGGGACAGAGUUAAUGAGUUUAGUACGGAGCACUGAAGAUUUUGCUGGAUCCACUUGUUACUGCCAAGGCCACUUAUGAUGUCUGUGAUCAACAGAGGAUUGAGCAUCA
# B7: chr7:75932113:75932114:+_ENSG00000106211_ENST00000248553|hu_hu|hu_hu_hu_mus_False|28_98 (ssRNA)
# RNA: GGGAGUUCUACAGUCCGACGAUCCUGCGACCACUCAUCCGGCAGCCGGGGCACCCCGAAAGCUUGAUCGAAGAGGCGGCUGUGUGCAGGGUACCAGUCCCGGAAUGCCCAGCUGGGCGGGCUCCGCAGCAGCGAGAAGGGCACCAACAGAGGAUUGAGCAUCA
# B8: chr14:62207481:62207482:+_ENSG00000100644_ENST00000337138|hu_hu|motif|central (ssRNA)
# RNA: GGGAGUUCUACAGUCCGACGAUCGGAACGUAACUGGAAGUCAUCAUCCAUUGGGAUAUAGGGAGCUAACAUCUCCAAGUCGGAAUCUGUGUCCUGAGUAGAAAAUGGGUUCUUUGCUUCUGUGUCUUCAGCAAAAAGUUUUUCCAACAGAGGAUUGAGCAUCA
# B9: 3094694_3110175_347_CDS_ENSG00000088256_ENST00000078429|human|control|control (ssRNA)
# RNA: GGGAGUUCUACAGUCCGACGAUCGAACGUGCUCUUCCCGCUCUCGCCCGUGCCGAGCAGCAGCAGCUUGAGCUCGCGCCGGGCGUCGCGCUUGUCCCGCCGCAGCUGCUUCUCGAUCUCGGCGUUGAUCCGCUUGGACUCCUUCAACAGAGGAUUGAGCAUCA
# B10: chr6:71460543:71460544:+_ENSMUSG00000052656_ENSMUST00000064637|mus_hu|motif|central (ssRNA)
# RNA: GGGAGUUCUACAGUCCGACGAUCCAACCAAAUAAAUUCUGUCAUCAACAUUAGCAUAAUGUGUAUUUCCCGUCACUGCACGGACAUUAAACUAAACUUCAAACCACAAAAACAUUGUGACUAACAUUAAAAAGGCAAGCUGUACAACAGAGGAUUGAGCAUCA
# B11: 3469518_3474534_773_CDS_ENSMUSG00000037486_ENSMUST00000111215|mouse|control|control (ssRNA)
# RNA: GGGAGUUCUACAGUCCGACGAUCUCUGCAUUGCUGCUGCUUCUUCUUCUGUUGUUGCUGCUUCAAGGCCUGUUUUAAUGCCUUUUUGCUGUGCUUCUGUGAUGGAGAAAUGACUUUACUUGCUGGAAUGGUGGGUGAUGGGCACAACAGAGGAUUGAGCAUCA
# B12: chr11:87793471:87793472:-_ENSMUSG00000020483_ENSMUST00000020775|mus_mus|mus_mus_mus_hu_False|48_108 (ssRNA)
# RNA: GGGAGUUCUACAGUCCGACGAUCUGGGGGCUGGGGAAAAAGAAUAAGCUGGAUCCCCCACCCCCCCACAUUGUCAACCCUACACGAGUUCUGAAUGGGCGACUCAUGAAAAUCAGCAGCUCAAACGGCAAUGACCACCCCACCCAACAGAGGAUUGAGCAUCA
# B13: chr4:81936313:81936314:-_ENSMUSG00000008575_ENSMUST00000064770|mus_mus|motif|central (ssRNA)
# RNA: GGGAGUUCUACAGUCCGACGAUCCCCACAAAAAGUACACAAAGAACAUUAUCCUCCAACCGGGCACAAUAAAACCUUCACGGACAUUCCGGCCCAGUCUGGGGCCUAUCCCAGAGGCCCGAACUCCAGAAAUUAAGUAAGUAACAACAGAGGAUUGAGCAUCA
# B14: 180847415_180847535_5442_CDS_ENSMUSG00000026494_ENSMUST00000161017|mouse|control|control (ssRNA)
# RNA: GGGAGUUCUACAGUCCGACGAUCCGACAGGCUUUCGGCCCUCUCCAACGACAAGCAUUCGUAGUGGCUGACUGUUGUCCUGCCAAGAGAGUUGCUUCUGCUGGCCAGCUGUUCCAGCUUGGCGCUGAAGAGCUUACUGCUGCUCAACAGAGGAUUGAGCAUCA
# B15: chr2:20454729:20454730:-_ENSG00000055917_ENST00000338086|hu_mus|motif|central (ssRNA)
# RNA: GGGAGUUCUACAGUCCGACGAUCAACAUAAUUGCCAUACUGAUCCUGUACCAACUGUUCUGUGUGUUGGUGAAGUUCUUCGGAGAUGGGUAAGGUCUGCUCUGCCGUGCAGUGCUCUAAGAUACGCUGAAUGACUCUGCAGCCCAACAGAGGAUUGAGCAUCA
# B16: chr11:47008823:47008824:+_ENSG00000149179_ENST00000278460|hu_hu|motif|central (ssRNA)
# RNA: GGGAGUUCUACAGUCCGACGAUCUCCCUGGCAUACACUGUUAAAAUAUUCAGUGAAGAACCUGGCAAUUCCAUAUUGGCGGAUAUCUUCCCUGUUUUCUAGCAGCUGGCACACUGCAUCCUCCAUGUAGGUGAGGACAUGUCGCAACAGAGGAUUGAGCAUCA
# B17: chr1:25687284:25687285:+_ENSG00000183726_ENST00000374358|hu_mus|FALSE|FALSE (ssRNA)
# RNA: GGGAGUUCUACAGUCCGACGAUCUCAUGAUUCUAGCAUUAUACAAUUUCAAGCUGAGAUUAUACUCAGAAAUAAGUUUAGAAAACAGUAUUACAAAAGACUGGGUGGGUGAGCAGGGUGCAAAAAGAAGCCCAUGCACGGCGGCAACAGAGGAUUGAGCAUCA
# B18: chr3:119450855:119450856:-_ENSMUSG00000028134_ENSMUST00000029780|mus_hu|mus_mus_mus_hu_False|78_78 (ssRNA)
# RNA: GGGAGUUCUACAGUCCGACGAUCUGUGGUGCCACUAAGAGGAGUAUUUGCUGUCUGGACCGCUGUCACAGCUUGAAGAACUGCCUGAGCACGUUGGUUUAAUGUAUUAUCUGUCUUUAGUUCUUUGUGAUUCGAGUACUGGAUCAACAGAGGAUUGAGCAUCA
# B19: 51937465_51937585_3347_3pUTR_ENSMUSG00000020349_ENSMUST00000020608|mouse|control|control (ssRNA)
# RNA: GGGAGUUCUACAGUCCGACGAUCACCACUCACUCUUUGACACAAGCCCCAUUCUGAGAAUCUGUAUGUACAUGACAUGUGUCAACUAUAGGAAAGACUCCAUUAGAGCCCUCUUUAUCGUCAGGAUCCCCAGUGCAGCUGCUUCAACAGAGGAUUGAGCAUCA
# B20: chr5:28717518:28717519:+_ENSMUSG00000048271_ENSMUST00000114884|mus_hu|FALSE|FALSE (ssRNA)
# RNA: GGGAGUUCUACAGUCCGACGAUCUGCUGAGGGCGUGGCAGAGCAGCGGCUGCUGCUCAUUUCUAUCACGUGUGACGGCGCUAUGGGUAAUUCACGCAAAUUGCUGUUCCUUGGCGCAGUGGGCUGCAUUUGCUGCAUGGGCCGCAACAGAGGAUUGAGCAUCA
# B21: chr2:216225781:216225782:-_ENSG00000115414_ENST00000323926|hu_hu|motif|central (ssRNA)
# RNA: GGGAGUUCUACAGUCCGACGAUCAAAUACUGGGAAAAAUUGAUAAAUAACAGGUAAGAGAAAGAUAUUUCUAGGCAAUUACGGGGAUCAUUUGGAAAAAGUGAGUACUGUGGAUAUUUAAAAUAUCACAGUAACAAGAUCAUGCAACAGAGGAUUGAGCAUCA
# B22: chr17:7417611:7417612:+_ENSG00000181222_ENST00000322644|hu_hu|FALSE|FALSE (ssRNA)
# RNA: GGGAGUUCUACAGUCCGACGAUCCAAGAGUCUGCAUCAGAAACGGGAUCCAGAAGUUCACCGGGAGCUCUGCCACAAGGCAUUUAUGUACAACGGAGCUGGGCUGGGGGUGACGCCCCGUGAGGGAGGCAAGAACUGCACAGCCAACAGAGGAUUGAGCAUCA
# Molecular target: T1, UNK ZnF1-3 (human, UniProt Q9C0B0 31-174)
# T1 sequence: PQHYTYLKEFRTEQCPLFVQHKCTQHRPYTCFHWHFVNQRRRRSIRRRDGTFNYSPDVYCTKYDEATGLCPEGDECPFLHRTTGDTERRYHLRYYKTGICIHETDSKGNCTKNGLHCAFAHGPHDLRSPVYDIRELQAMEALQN
# Assay: nsRBNS (natural sequence RNA bind-n-seq); RBNS binding buffer (assumed for nsRBNS): 25 mM Tris pH 7.5, 150 mM KCl, 3 mM MgCl2, 0.01% Triton X-100, 500 ug/ml BSA, 20 U/ml SUPERase-In, 4 C; UNK is unkempt and MSI1 is Musashi-1; names of the RNAs are library labels; protein concentration not given here; high values mean tight binding
row,Binder,binding signal [enrichment R]
1,B1,1.02
2,B2,1.26
3,B3,1.21
4,B4,0.788
5,B5,1.05
6,B6,1.23
7,B7,0.901
8,B8,1.15
9,B9,0.559
10,B10,1.01
11,B11,0.465
12,B12,1.49
13,B13,1.25
14,B14,0.463
15,B15,0.842
16,B16,0.688
17,B17,1.97
18,B18,0.807
19,B19,0.901
20,B20,0.527
21,B21,1.91
22,B22,2.61

# — publication PMC12136788
